Hit rate of the full screen: of about 52,000 compounds, about 4,300 (8.3%) were called active. Cut-off read from the data, not from the text of the source: active = survival mostly below about 52% (no sharp cut-off); inactive = mostly above about 56%. The list shows a part of the results.

The subject of this assay is DeltatarO mutant. The experiment in a line: growth inhibition of S. aureus wild type versus tarO mutant, primary screen, teichoic acid synthesis inhibitors, RN4220, OD600 (AID 463173). Conditions: OD600, 18 h, active compounds read low, screened at 18.75 µg/mL (by protocol).
On to `CN(Cc1ccccc1)C(=O)c1cn(C)c2ccc(S(=O)(=O)N(C)C3CCCCC3)cc2c1=O`, for which the survival is inactive: 88%. Under `CCCS(=O)(=O)c1nc(S(=O)(=O)c2ccc(C)cc2)c(NCc2ccccc2)s1` stands inactive: 102%; under `O=C(NCC(c1ccccc1)c1ccccc1)c1nn(-c2ccccc2F)nc1CO`, inactive: 104%; under `Cc1ccc(CCNC(=O)CCSCc2ccccc2Cl)cc1`, active: 20%. As for `Cc1ccc2c(c1)-c1c(cnn1CC(=O)Nc1ccccc1C#N)CO2`, the survival is inactive: 111%. Under `CC(=O)N1CCCc2cc(S(=O)(=O)N3CCCC(C(=O)N4CCN(c5cc(C)ccc5C)CC4)C3)ccc21` (centres undefined) stands inactive: 79%; under `Cc1ccc(OC(=O)CSc2nnc(CNC(=O)c3ccccc3)o2)cc1`, inactive: 81%; under `CCc1ccc(C2=NN(CCC(=O)NCCc3ccc(Cl)cc3)C(=O)CC2)cc1`, inactive: 128%. As to `Cc1ccc(C(=O)COC(=O)CCC(=O)Nc2ccc(Oc3cc(C)ccc3C(C)C)cc2)cc1`, the survival was inactive: 62%. Under `C(=N\c1nncs1)/Nc1nncs1` stands inactive: 85%; under `Cc1ccc2nc(C3CCCN(C(=O)NCc4ccccc4)C3)[nH]c2c1` (centres undefined), inactive: 74%; under `O=C1c2ccccc2S(=O)(=O)c2cc(-c3nn[nH]n3)ccc21`, inactive: 77%.

Consider `Cc1ccc(NC(=O)c2c(C)oc3ccc(O)c(CN4CCCCC4)c23)c(C)c1`, for which the survival is inactive: 58%. The figure for `CC(=O)NC1N=C(C)N(c2ccccc2)C1=O` (centres undefined) is inactive: 87%; for `Cc1ccc(-c2nnc(Nc3ccc(S(N)(=O)=O)cc3)c3ccccc23)cc1S(=O)(=O)N1CCCCC1` it is inactive: 103%; for `COCCNC(=O)CSc1nc(-c2ccccc2C)nc2c1c(=O)n(C)c(=O)n2C` it is inactive: 80%. Consider `COc1ccc(CCC(=O)NCCc2csc(-c3ccc(Cl)cc3)n2)cc1`, for which the survival was inactive: 113%. The figure for `NS(=O)(=O)c1ccc2nc(NC(=O)COc3ccccc3)sc2c1` is inactive: 81%; for `CN(Cc1ccco1)S(=O)(=O)c1nnc(NC(=O)c2cccc(Cl)c2)s1` it is active: 5%. The figure for `Cc1ccc(NC(=O)c2nc(S(C)(=O)=O)ncc2N(Cc2ccco2)Cc2ccco2)cc1C` is inactive: 50%; for `CC(C)C(NS(=O)(=O)c1ccc2c(c1)oc(=O)n2C)C(=O)NCCc1ccc(Cl)cc1` (centres undefined) it is inactive: 86%. For the molecule `CCOc1ccc(Nc2c(S(=O)(=O)c3ccccc3)cnc3ccccc23)cc1`, the survival was active: 38%. On to `Cc1ccc2cccc(NC(=O)c3ccc(-c4cccc(Cl)c4)o3)c2n1`, for which the survival is active: 49%.

For the molecule `COc1ccc(Cl)cc1NC(=O)NCC1CCN(Cc2ccccc2F)CC1`, the survival was inactive: 95%. For the molecule `CCOc1ccc(OCC)c(NS(=O)(=O)c2cc(-c3onc(C)c3C)ccc2OC)c1`, the survival is inactive: 83%. Under `CN1C(=O)C2(SCC(=O)N2c2ccc(F)cc2)c2ccccc21` (centres undefined) stands inactive: 83%. The figure for `CC1=NN(C(=O)c2ccccc2)C(C)(O)C1(C)C` (centres undefined) is inactive: 98%; for `CCOCCCNC(=O)C(c1ccc(Cl)cc1)N(Cc1cccs1)C(=O)c1ccc(NC(C)=O)cc1` (centres undefined) it is inactive: 73%; for `Cc1ccc(NC(=O)CN2C(=O)C3(SCC(=O)N3c3ccc(F)c(F)c3)c3ccccc32)c(C)c1` (centres undefined) it is inactive: 88%.

For the molecule `CCC(=O)N1CCc2cc(Br)cc(S(=O)(=O)CCC(=O)N(CC)Cc3ccccc3)c21`, the survival was inactive: 80%. `CN1/C(=N\O)c2cccc3cccc1c23`: the survival is inactive: 97%. Under `CC(C)(Oc1ccc(Cl)cc1)C(=O)Nc1nc2ccc(S(C)(=O)=O)cc2s1` stands inactive: 69%; under `CN(C)c1ccc(C(CNC(=O)c2c(F)cccc2Cl)N2CCOCC2)cc1` (centres undefined), active: 25%; under `CCN(C(=O)C1CCN(c2ncnc3c2nc2n3CCCCC2)CC1)c1cccc(Cl)c1`, inactive: 79%. The figure for `O=C(NCC(c1ccc2c(c1)OCO2)N1CCOCC1)c1c(F)cccc1F` (centres undefined) is inactive: 69%; for `COc1ccc(-n2ccnc(NCc3ccc(C)cc3)c2=O)cc1OC` it is inactive: 94%.

As to `Cc1cccc(N2CCN(c3nc4ccc(C)cc4n4cnnc34)CC2C)c1` (centres undefined), the survival is inactive: 76%. In the case of `CC1(C)Cc2ccccc2/C(=C/C(=O)N2CCCCCC2)N1`, the survival is inactive: 81%. With `CCn1cc(C(=O)NCCc2ccc(Cl)cc2)c(=O)c2cc(S(=O)(=O)N3CCC(C)CC3)ccc21`, the survival is inactive: 105%.

On to `O=C(NC1CCCCC1)c1ccc2c(c1)N(Cc1ccc(Cl)cc1)C(=O)c1ccccc1S2=O` (centres undefined), for which the survival is inactive: 87%. Under `O=C(c1ccc(F)cc1)n1nc(-c2ccccc2)nc1NCc1ccco1` stands active: 18%; under `COc1ccc(N(CC(=O)N2CCN(c3ccccc3F)CC2)S(=O)(=O)c2c(C)n[nH]c2C)cc1`, inactive: 119%. `Cc1cccc(NC(=O)CCNS(=O)(=O)c2cccc3nsnc23)c1C`: the survival is inactive: 50%. The figure for `CCOc1ccc(N2C(=O)CC(N(CCc3ccccc3)C(C)=O)C2=O)cc1` (centres undefined) is inactive: 94%; for `CCN1CCN(CCCNC(=O)c2ccc3nc(Cc4ccccc4)oc3c2)CC1` it is inactive: 105%; for `COc1ccc(N2CCN(C(=O)c3cc(S(=O)(=O)N4CCC(C)CC4)cn3C)CC2)cc1` it is inactive: 75%.

Consider `O=C(CO)N/N=C\c1c(F)cccc1Cl`, for which the survival was inactive: 51%. Under `O=C(CCSc1nc(-c2ccco2)cc(C(F)(F)F)n1)N1CCCC1` stands inactive: 97%. Under `COc1cccc(CNC(=O)CCc2c(C)c3cc4c(C)coc4c(C)c3oc2=O)c1` stands inactive: 55%; under `CCc1ccccc1NC(=O)CCS(=O)(=O)c1cccc2nonc12`, inactive: 74%; under `COc1ccc(OCC(=O)N2CCN(C(=O)c3cccc(OC)c3)CC2)cc1`, inactive: 72%. Under `COc1ccccc1NC(=O)c1sc2nc(C)c(C(=O)Nc3ccc(C)cc3C)c(-c3ccc(C)o3)c2c1N` stands inactive: 69%. Consider `CCn1c(C)c(C)c2cc(C(=O)NCc3cccc(C)c3)ccc21`, for which the survival is inactive: 95%. The figure for `Cc1cccc(C(=O)Nc2ccc(C(=O)OCc3cc(=O)n4nc(CC(C)C)sc4n3)cc2)c1` is inactive: 99%. For `COc1ccc(NC(=O)/C=C\C(=O)N(c2ccc(C(C)C)cc2)C(C(=O)NCc2ccco2)c2ccc(F)cc2)cc1` (centres undefined), the survival was inactive: 83%. In the case of `O=C(c1ccccc1)N(Cc1ccco1)Cc1cccs1`, the survival was active: 41%. For the molecule `COc1cccc(N2CCN(C(=O)c3ccc(NC(=O)c4nsc5ccccc45)cc3)CC2)c1`, the survival is inactive: 64%. `COc1ccc(NC(=O)c2ccco2)cc1NC(=O)COc1ccc(Cl)cc1C`: the survival was inactive: 57%.

As to `Cc1ccc(C(=O)NCc2ccc(F)cc2)cc1NC(=O)c1nsc2ccccc12`, the survival was inactive: 95%.

Regarding `CCN(CC)CCNC(=O)c1sc2ncccc2c1-n1cccc1`, the survival was inactive: 102%. `Cc1ccc(NC(=O)CSc2nc(-c3ccccc3Cl)nc3cc(=O)[nH]n23)c(C)c1`: the survival is inactive: 74%.

On to `Cc1ccc(C(c2sc3nc(-c4ccco4)nn3c2O)N2CCC3(CC2)OCCO3)cc1` (centres undefined), for which the survival is inactive: 78%. As to `CCc1cccc(Nc2ncnc3onc(-c4ccc(F)cc4)c23)c1`, the survival was inactive: 87%. Under `COC(=O)c1c(C)nn(-c2ccc(F)cc2)c1-n1cccc1` stands inactive: 100%; under `CCOc1ccccc1C(=O)NC1CC2CCCC(C1)N2Cc1nnnn1Cc1ccco1` (centres undefined), inactive: 74%. The figure for `COc1ccc(OC)c(C2NC(=O)NC(C)=C2C(=O)Nc2ccc(F)cc2)c1` (centres undefined) is inactive: 80%; for `COc1cccc(N2CCN(S(=O)(=O)c3ccc(-c4ccno4)cc3OC)CC2)c1` it is inactive: 64%; for `O=C(CSc1cn(CC(=O)N2CCCCC2)c2ccccc12)Nc1ccc(C(F)(F)F)cc1` it is inactive: 77%. For `COc1cc(C(=O)Nc2nonc2-c2ccc(C)c(C)c2)cc(OC)c1OC`, the survival is inactive: 79%.

With `COc1ccc(C)cc1-n1cnc2cc(C(=O)NC3CCCC3)ccc21`, the survival was inactive: 119%. Under `Cc1cc(C)n2c(SCC(=O)N(C)C3CCCCC3)nnc2n1` stands inactive: 80%; under `CCCN1C2CCCC1CC(NC(=O)Nc1ccc(SC)cc1)C2` (centres undefined), inactive: 80%; under `Cc1cc(C)cc(-n2c(SCC(=O)Nc3ccc4c(c3)OCCO4)nc3c([nH]c4ccccc43)c2=O)c1`, inactive: 126%.

As for `Cn1cc(S(=O)(=O)c2ccccc2)c(=O)c2cc(F)c(N3CCCCCC3)cc21`, the survival is inactive: 100%.

`Cn1c(=O)n(C)c2cc(N3CCCCC3)c(NC(=O)c3ccc(C(C)(C)C)cc3)cc21`: the survival was inactive: 93%. The figure for `COc1ccc(CNC(=O)CCc2nc(-c3ccc(C)cc3)no2)c(OC)c1` is inactive: 122%.

For the molecule `O=C(Nc1ccc2nc(SCC(=O)N3CCc4ccccc43)sc2c1)c1ccccc1F`, the survival is inactive: 119%. Under `CC1=C(c2ccc(C)c(C)c2)S(=O)(=O)N=C1N1CCC(C(=O)NC(C)Cc2ccco2)CC1` (centres undefined) stands inactive: 83%. The figure for `COc1cccc(C(=O)Nc2ccccc2-c2nnc(-c3cccc(OC)c3)o2)c1` is inactive: 41%; for `CC(=O)Nc1ccc(S(=O)(=O)NC2(C(F)(F)F)NC(=O)N(CCc3ccc(F)cc3)C2=O)cc1` (centres undefined) it is inactive: 131%; for `CCOC(=O)Cc1cc(=O)n2[nH]c(-c3ccccc3)cc2n1` it is inactive: 92%. `CCOc1cc(CNC(=O)Cn2c(-c3cccs3)cc3cc(F)ccc32)ccc1OC`: the survival was inactive: 89%. Under `Cc1ccc(Cl)cc1NC(=O)CCC(=O)NCc1ccco1` stands inactive: 74%.

For `O=C1NC(=Nc2ccccc2)S/C1=C\c1ccc(C(=O)O)cc1`, the survival is inactive: 93%. As to `Cc1ccc(-n2c(SCC(N)=O)nc3c(oc4ccccc43)c2=O)cc1C`, the survival was inactive: 97%.

Regarding `Cc1ccccc1Nc1c(-c2cccs2)nc2cccc(C)n12`, the survival is inactive: 63%. For `CC1Cc2cc(S(=O)(=O)N(Cc3ccccc3)C(C)C)ccc2N1C(=O)C1CCC1` (centres undefined), the survival is inactive: 73%. Under `Cc1cc(C(=O)Nc2c(C)nc3ccccn3c2=O)ccc1[N+](=O)[O-]` stands inactive: 92%. The figure for `O=C(CSc1nc2c([nH]c3ccccc32)c(=O)n1-c1ccc(Cl)cc1)NCC1CCCO1` (centres undefined) is inactive: 78%.

The values are drawn from PubChem BioAssay AID463173 (ICCB-Longwood Screening Facility, Harvard Medical School, 2010).
